Assay results reported in the supplement of paper PMC12217912.
The other results are listed elsewhere or left out. Sequences were assembled here from the parent chain. Values near 0.05 are background.

B1: TEV protease; numbered along this chain (parent)
chain: MGESLFKGPRDYNPISSSICHLTNESDGHTTSLYGIGFGPFIITNKHLFRRNNGTLVVQSLHGVFKVKDTTTLQQHLVDGRDMIIIRMPKDFPPFPQKLKFREPQREERICLVTTNFQTKSMSSMVSDTSCTFPSGDGIFWKHWIQTKDGQCGSPLVSTRDGFIVGIHSASNFTNTNNYFTSVPKNFMELLTNQEAQQWVSGWRLNADSVLWGGHKVFMVKPEEPFQPVKEATQL

Variants of: B1
Assay: raw area under fraction-flipped curve 0-4 h after induction (AUC4h, not background-subtracted), DNA-recorder readout of cleavage of the substrate (dimensionless); higher = more cleavage of the substrate by the protease variant
Conditions: temperature: 34 °C; time window: 0-4 h after rhamnose induction
Experimental: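 In vivo DNA recorder in E. coli TOP10(DE3) ΔrhaA at 34 °C. Each TEVp single-site mutant (parent TEVp 0) is paired with a single-site variant of the 7-mer TEVs (canonical ENLYFQ|S). The substrate sits between flexible linkers in a Bxb1-sfGFP-TEVs-SsrA fusion, so cleavage stabilises Bxb1 and speeds flipping of a recombination array, read by NGS. The value is the raw area under the fraction-flipped curve over 0-4 h after rhamnose induction (AUC4h), with ≥20 reads per time point. It is not background-subtracted; inactive controls average about 0.047.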
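Further: Bxb1 expression induced with 0.2% (w/v) L-rhamnose at OD600 near 0.5, cultures sampled hourly, flipped fraction per protease–substrate barcode pair counted by paired-end Illumina sequencing.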

| Variant | area with substrate ENLYFQA | area with substrate ENLYFQC | area with substrate ENLYFQD | area with substrate ENLYFQH | area with substrate ENLYFQL | area with substrate ENLYFQM | area with substrate ENLYFQN | area with substrate ENLYFQR | area with substrate ENLYFQS | area with substrate ENLYFQT | area with substrate ENLYFQV | area with substrate ENLYFQW | area with substrate ENLYFQF | area with substrate ENLYFQG | area with substrate ENLYFQI | area with substrate ENLYFQK | area with substrate ENLYFQY | area with substrate ENLYFQE | area with substrate ENLYFQP | area with substrate ENLYFQQ |
| --- | --- | --- | --- | --- | --- | --- | --- | --- | --- | --- | --- | --- | --- | --- | --- | --- | --- | --- | --- | --- |
| G37K | 0.0668 | 0.0636 | 0.0498 | 0.0542 | 0.0467 | 0.0579 | 0.0596 | 0.0461 | 0.0579 | 0.0474 | 0.0453 | 0.0528 | – | – | – | – | – | – | – | – |
| R51L | 0.0838 | 0.0948 | 0.0691 | 0.0777 | – | 0.0884 | 0.075 | – | 0.108 | – | – | – | 0.0794 | 0.0912 | 0.0386 | 0.0597 | 0.0794 | – | – | – |
| G54T | 0.0626 | 0.0772 | 0.0768 | 0.063 | 0.0651 | 0.0647 | 0.0677 | 0.0526 | 0.0775 | 0.0495 | – | 0.0576 | – | 0.0567 | 0.0592 | 0.0419 | 0.055 | 0.0627 | 0.0494 | 0.0567 |
| S18I | 0.103 | – | 0.0685 | – | 0.0605 | 0.072 | 0.0735 | 0.0655 | 0.095 | 0.0619 | – | 0.0541 | 0.0799 | 0.111 | 0.0558 | 0.0605 | – | 0.0639 | – | – |
| S17H | 0.111 | 0.121 | – | 0.0894 | 0.0528 | 0.0769 | 0.0764 | 0.0605 | 0.111 | 0.0665 | – | 0.0632 | 0.0745 | – | 0.0594 | – | – | 0.0693 | 0.0659 | 0.075 |
| G28A | 0.0837 | 0.103 | 0.0773 | 0.0808 | – | 0.0727 | 0.0723 | 0.059 | 0.0957 | 0.0613 | 0.0716 | 0.0599 | – | 0.0993 | 0.054 | – | 0.0614 | – | – | – |
| A196I | 0.109 | 0.118 | – | 0.043 | 0.0781 | 0.0824 | 0.0759 | 0.0567 | 0.108 | 0.0633 | 0.0627 | 0.0758 | 0.0697 | 0.114 | 0.0504 | 0.0583 | 0.069 | – | 0.0585 | – |
| T70W | 0.0636 | 0.0754 | 0.0606 | – | 0.0575 | 0.0674 | 0.0582 | 0.0601 | 0.0667 | 0.0588 | 0.0569 | 0.0609 | 0.0764 | 0.0126 | 0.0615 | 0.0578 | 0.0574 | 0.0597 | 0.0834 | 0.0729 |
| F173I | 0.104 | 0.114 | 0.074 | 0.0819 | 0.0676 | – | 0.0737 | 0.0563 | 0.104 | 0.0631 | 0.056 | 0.0753 | 0.0669 | – | – | 0.0601 | – | 0.0711 | 0.0528 | – |
| N13A | 0.0943 | 0.092 | 0.0535 | 0.0839 | 0.0688 | 0.0897 | 0.0667 | 0.0647 | 0.0942 | 0.0744 | 0.0624 | – | 0.0772 | 0.0877 | 0.0507 | 0.0691 | 0.0595 | – | 0.0595 | 0.0666 |
| G37N | 0.0469 | 0.0743 | 0.0571 | – | – | – | 0.0504 | 0.0563 | 0.0688 | 0.0847 | 0.0657 | – | – | 0.0731 | 0.0443 | – | 0.0488 | – | – | 0.045 |
| A196H | 0.115 | 0.12 | 0.0794 | 0.0798 | 0.0701 | 0.0916 | 0.0818 | – | 0.108 | 0.0626 | 0.0495 | 0.0493 | 0.0713 | 0.143 | 0.0709 | 0.0563 | – | – | 0.0525 | 0.0809 |
